The RNAGym collection of RNA variant scans (doi:10.1093/nar/gkz1192)
Read counts are not given, so values of variants with three or more changes are uncertain.

B1: CPEB3 Ribozyme (parent)
chain: UAACAGGGGGCCACAGCAGAAGCGUUCACGUCGCAGCCCCUGUCAGAUUCUGGUGAAUCUGCGAAUUCUGCUGUAUAUCUC

Variants of: B1
Assay: self-cleavage, relative activity (ratio to wild type); higher = more cleavage; in vitro, sequencing
Procedure, shortened: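 After error-prone PCR and barcoding, CPEB3 ribozyme mutant libraries were transcribed with T7 RNA polymerase at 37°C for 5 hours, then given 15 min with DNase I before an EDTA stop, and they cleaved during both steps. Reverse transcription with template switching preceded Illumina sequencing. Relative activity divides a variant's cleaved/total read fraction by the unmutated ribozyme's. At least 5 reads were required per variant, and three batches were averaged.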

Variant	self-cleavage
G30A U60G U69A	0.07
C29U U43A U54A G70A U78C	0.17
A28U U48A U58A U67A U72C	0.05
G30A U69C U72G A77G	0.11
C29U U41A U66C U67A	0.13
A28U U31C A64G	0.41
C29U U78C U80C	0.21
C29U A57G U58A	0.38
A28U U43A G63A A65G	0.63
C29U G33U C37G C38U A57G A75U	0.07
G30A U41C U69G	0.13
C29A U54C A57G A64G U69C U72A	0.05
A28U U41C U58A	0.15
A28U U41C U58C	0.23
C29A U51A A77G U78C	0.15
A28U U43G U72C	0.24
C29U U49A U69C A75G A77G	0.11
G30U U43A A45G G70A U74A	0.07
A28U A77U U80C	1.13
G30U U41C U51C	0.17
C29U U60C U67C	0.42
G30U C62U U76C	0.08
G30A A45G U49A A56G U80C	0.09
A28U U60A U74C	0.86

Variant	self-cleavage
G30A C68U U80C	0.15
C29U A65G A75U	0.27
C29U A35G A75G	1.23
G30U U41C U78C	0.25
C29A U69G U76A	0.26
A28U U58C U60C U76C	0.28
C29G C37U G42U	0.12
A28U C40A A45G U60C	0.12
A28U C38U A45G U80C	0.5
A28U U43C U54A U67C	0.39
G30A C40A G52C A65G	0.12
C29G A45U U67C U69C	0.15
A28U U41G U43C A64G	0.34
A28U U31C U67C	0.09
A28U U31C A65G U80C	0.11
C29U A35G U54A	1.2
A28U U41C A47G U54A	0.61
G30A G46U A56U	0.13
A28U U41C G42C	0.55
A28U U72C U76A	1.13
C29A U60A U76A	0.27
A28U C37U U48C U51A U60G	0.07
A28U C38A A45U A47G A56G U76A C81U	0.25
G30A U41C A45U U54G A64G	0.06

Variant	self-cleavage
G30U A35C U72C U74A	0.05
A28U A65G U72C U78C	0.27
G30U A35U U41A A64G	0.1
A28U C39G U41C C62U	0.19
G30U G52C U54A A64U U69C	0.14
A28U A45G U54C A75U	0.44
G30A U49C U78A	0.1
A28U C40A U48C A57G U78C	0.08
G30A U41C U60C	0.21
C29U U41C A57U U58A	0.13
C29A G63A A64G U69A U78A	0.1
A28U U67A U74C	0.57
U31A A35U A45U U72C U74C C79A	0.05
C29U U51A A65G	0.13
G30U U41C U72A	0.05
C29U U41C A57G	0.41
C29G A56U U60A	0.14
A28U C32U U60G	0.08
A28U A47G C71A	0.23
A28U U31A G33A	0.23
G30A A57G C59A	0.18
G30C U48C A64G A65C	0.12
A28U A35C A57G A75U U78C	0.41
A28U A47U U72C U74A	0.28

Variant	self-cleavage
C29U A45G A57U U58C C62U	0.07
A28U U43C A56G A75G	0.19
G30U A47G U66A	0.1
G30A G52A A57U	0.54
G30U U41A C62U U69A	0.13
A28U U41C G55U	0.68
C29U A57C U69C U72A	0.13
G30C A35G A45U U49C U58A	0.14
A28U C34A U51A U60A	0
A28U U31A C40U A56G U69C	0.15
C29G U31A C40U U41A A47G A75U	0.17
C29U A57G U60C	0.34
C29U U48C U60A A75G	0.16
A28U A35G A47U A56G A77C	0.23
A28G U74C U80C	1.01
C29U A35U U51C	0.4
C29G U54C A77U	0.1
A28G U67C U80C	0.37
C29U U43C A56U U69A	0.17
C29U A64G U80C	0.75
C29U U60C U72G	0.04
A28U C40U U48C	0.21
C29U C50A A56G	0.25
A28U U49A U51A	0.2

Variant	self-cleavage
A28U U51C U72G	0.65
A28U U49C U51C U78C	0.17
C29G U69C U72A	0.05
G30U U49A C62U A77U	0.06
C29U U41C U72C	0.63
C29G U31C A64U A65U U80C	0.07
A28U G52A U69A	0.41
A28U A45G U58C	0.16
G30U U41A U49C G52A U80C C81U	0.07
G30U U41C U60C U72C	0.15
G30A A45G A57G	0.19
G30C U48C G63A U74C	0.14
G30A U43C A47G U48C A56U U69C	0.05
A28U U49C U67A	0.09
A28U U49C U67C	0.13
G30C U49C U58C A65G U76A	0.11
G30C U51C U69A C71G U72A	0.07
G30C U31C A35U	0.13
A28G U72G U76A	0.44
C29U U31A A64G	0.13
A28U U41A A47U U69A	0.05
A28U U78A U80C	0.8
C29G C40G U69C U72A	0.12
G30U U58C U76C A77G	0.4

Variant	self-cleavage
A28U A45U A65G U69C U74C	0.12
C29A A45U U51C U54C U58C C68A	0.07
C29U U41C U43C U66C C71U C81A	0.11
A28U U31A A64G A65G U78A	0.06
C29A U48C U51A U78A	0.19
A28U G70A U76A U80G	0.42
C29U C38U U72G	0.41
A28U A35U A57G U67C A77G	0.11
A28U U51A U72G	1.01
A28U U43A U48C	0.85
C29U U49C U78C U80A	0.1
C29A G33A U60A	0.13
C29U U49C U72C	0.26
A28U G30A U41C U60C C68U	0.08
A28U C37A U80C	0.3
C29A U72C A77U U80A	0.59
A28U U74A U80C	1.23
C29G U31A C40U U41G A47G U48C	0.21
C29G U31A U54A	0.3
A28U C32G A56G U76C	0.08
G30A U43C U78C U80C	0.16
A28U U67A U72A U80C	0.34
A28U A35G A45U U60A	1.29
U31A A35G U43C U72A	0.9

Variant	self-cleavage
A28U U51C U67C U69C	0.18
A28U U54A A65G	0.25
C29U U54A U72C U78C U80C	0.79
C29U A35U U51A A64U	0.24
C29U U51C G61U U72A	0.12
C29A U54A G63A U69C	0.17
A28U G36A A57U A64G A77G	0.05
G30A A35G U48C A64G U69C	0.11
C29G U60C U67C	0.08
C29A A35G U51A A57G U69C U74C	0.56
A28U U48C A56G	0.18
C29U U69G U80C	0.2
A28U A56U A77U U78A	0.5
A28U U43A A64G	0.84
C29G U41G A56G	0.48
C29A A45G G52U U54C	0.23
A28U C38G G52C A75U	0.14
A28U U41A U49C A77U	0.2
A28U U31G U66C U78C	0.25
A28U U48C A56G U76A	0.36
G30A C32U U51C	0.12
A28U U48C U69C	0.23
G30A U48C U54C	0.11
